Data reported in the supplement of paper PMC8748497.
The list shows a part of the results.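 The calls were made as follows: active = GRHL reporter fold change of at least 2 over DMSO at 10 µM; inactive = below 2-fold.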 Single values are uncertain, as repeats are few or missing.

What follows are compounds tested on HEK293 GRHL-luciferase reporter (assay: GRHL luciferase reporter activity, fold change over DMSO control; higher = stronger GRHL reporter activation). Details: 10 µM; 24 h.
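Also: stable HEK293 line carrying repeated GRHL consensus sites upstream of a minimal promoter driving luciferase, luminescence read 24 h post-treatment, normalized to 0.5% DMSO vehicle wells.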

Row | SMILES | GRHL luciferase reporter activity
1 | COc1ccc2c(c1)OC[C@@H](Cc1ccc(OC)c(OC)c1)[C@@H]2O | inactive: 1.33
2 | CC1(C)O[C@@H]2C[C@H]3[C@@H]4C[C@H](F)C5=CC(=O)C=C[C@]5(C)[C@@]4(F)[C@@H](O)C[C@]3(C)[C@]2(C(=O)CO)O1 | inactive: 1.04
3 | CCN(CC)CCOCCOC(=O)C1(c2ccccc2)CCCC1 | inactive: 0.822
4 | O=C(O)C[C@H](O)C[C@H](O)/C=C/c1c(C2CC2)nc2ccccc2c1-c1ccc(F)cc1 | inactive: 0.777
5 | C[C@]12C=CC(=O)C=C1CC[C@@H]1[C@@H]2[C@@H](O)C[C@@]2(C)[C@H]1CC[C@]2(O)C(=O)COP(=O)(O)O | inactive: 1.33
6 | CC(C(=O)O)c1ccc(N2Cc3ccccc3C2=O)cc1 (stereo not drawn) | inactive: 0.905
7 | CCN1CCCC1CNC(=O)c1cc(S(=O)(=O)CC)c(N)cc1OC (stereo not drawn) | inactive: 0.889
8 | CC(=O)OCC(=O)[C@@]12OC(C)(C)O[C@@H]1C[C@H]1[C@@H]3C[C@H](F)C4=CC(=O)C=C[C@]4(C)[C@@]3(F)[C@@H](O)C[C@@]12C | inactive: 0.921
9 | CCOC(=O)n1ccn(C)c1=S | inactive: 1.02
10 | C=COCC(F)(F)F | inactive: 0.918
11 | Cc1cc(=O)oc2cc(O)ccc12 | inactive: 1.03
12 | CC(C)C1=CC2=CC[C@@H]3[C@](C)(CCC[C@@]3(C)C(=O)O)[C@H]2CC1 | inactive: 1.16
13 | CCCCCCCCCCCCCCCC(=O)O[C@@H]1[C@@H](O)[C@@H](O)[C@@H]([C@H](NC(=O)[C@@H]2C[C@@H](CCC)CN2C)[C@H](C)Cl)O[C@@H]1SC | inactive: 0.887
